In PubChem BioAssay AID588342 (National Center for Advancing Translational Sciences (NCATS), 2011):
About 25,000 (6.9%) of roughly 360,000 compounds were called active. Inconclusive results, whose numbers are uncertain, are shown with a selection of clear calls. The call rests on the fitted dose curve; in most records, active means well fitted inhibition curve with a large enough effect; inconclusive means small, poorly fitted or top-dose-only effect; inactive means flat fitted curve, though single readings scatter. Potencies of inconclusive entries are doubtful fits and often do not repeat.
Further: nearly all actives have a fitted effect of over 55% in size.
Tags describe the fitted curve by direction and shape.
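Wherever activity change, negative = inhibition is given: plate controls were vehicle for no effect and reference inhibitor for full effect.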

Each molecule was assayed against Luciferin 4-monooxygenase (Photinus pyralis) (UniProt P08659) (assay: qHTS profiling assay for firefly luciferase inhibitor/activator using purifed enzyme and Km concentrations of substrates (counterscreen for miR-21 project)). Settings: purified FLuc, luminescence inhibition; series mostly up to 57.5 µM; activity change, negative = inhibition: at the top concentration.
Chain of UniProt P08659 (P08659 whole entry, looked up): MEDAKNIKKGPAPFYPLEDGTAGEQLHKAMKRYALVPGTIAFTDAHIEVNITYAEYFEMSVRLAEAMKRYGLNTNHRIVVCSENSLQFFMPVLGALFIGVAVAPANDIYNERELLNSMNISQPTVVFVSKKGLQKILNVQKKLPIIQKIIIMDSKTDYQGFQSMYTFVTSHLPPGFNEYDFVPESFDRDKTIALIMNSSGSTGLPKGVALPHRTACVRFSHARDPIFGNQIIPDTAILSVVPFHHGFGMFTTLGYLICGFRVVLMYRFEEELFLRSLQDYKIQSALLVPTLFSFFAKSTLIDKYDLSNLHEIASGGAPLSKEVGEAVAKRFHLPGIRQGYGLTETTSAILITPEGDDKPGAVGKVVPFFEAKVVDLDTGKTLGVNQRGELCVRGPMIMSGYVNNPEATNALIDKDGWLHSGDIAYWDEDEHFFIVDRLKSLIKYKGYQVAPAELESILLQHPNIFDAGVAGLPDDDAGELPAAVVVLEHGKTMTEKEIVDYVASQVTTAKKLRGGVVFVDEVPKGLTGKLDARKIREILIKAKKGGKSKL
Description: MLPCN Grant: 1 R21 NS059478-01 (miR-21 grant) Assay Provider: NCGC NCGC Assay Overview: Firefly (Photinus pyralis) luciferase is one of the most commonly used transcriptional reporters for a number of reasons. It is considered one of the more dynamically responsive reporters -that is, responsive to changes in reporter transcription - as it requires no post-translational modifications and is enzymatically active directly after protein synthesis (Wood, 1998). Additionally, the half-life of the luciferase protein is short relative to other reporter-gene products (Wood, 1995). Whereas reporters with long half-lives potentially allow for increased signal due to accumulation of reporter-gene product, once accumulated in the cell, dynamic changes in reporter-gene expression may be difficult to detect(Fan and Wood, 2007; Almond et al., 2004). It has been shown that wild-type P. pyralis luciferase has a half-life of approximately […] hours in mammalian cells (Thompson et al., 1991). Firefly luciferase reporter-gene assays are also generally considered one of the most sensitive assay types (Wood, 1995; Wood, 1998). Although light produced in a bioluminescence reaction is of lower intensity than that produced during fluorescence emission, this is offset by little to no background light inherent to luminescent assays. Thus the luciferase reporter can be expressed at much lower levels than fluorescent proteins while still providing robust signal. # However, it was initially observed, in 1991, by Thompson et al., that compounds that resemble the substrates of firefly luciferase (FLuc) can act as competitive inhibitors of the enzyme, and that these compounds, upon interaction with luciferase in the cell, can actually stabilize the protein and increase its half-life. Accumulated intracellular FLuc protein can be measured as an increase in luminescence signal, upon addition of detection reagents (which contain high concentrations of FLuc substrates) commonly used in high-throughput screening. In cell-based reporter gene assays that use FLuc as the reporter gene to quantitate the potential influence of a given compound against the target biology, this apparent increase in luminescence can mistakenly be interpreted as identification of a compound that is active against the target of interest. This is the case for the miR-21 FLuc reporter gene assay used to identify inhibitors of the miR-21 pathway (PubChem AID 2289) - compounds of interest will inhibit miR-21 biogenesis/expression or activity, and are identified by causing an increase in luminescence, due to increased FLuc translation. However, FLuc inhibitory compounds that stabilize the FLuc protein will give an identical read-out, making it difficult to distinguish compounds that are active against the target from those active against FLuc. Previous profiling work to determine the prevalence of compounds that affect FLuc enzymatic activity (PubChem AID 411) identified that ~3% of the MLSMR library (then at ~72K) inhibited FLuc. […] Since the MLSMR had grown to ~350K compounds, and since it was expected that a significant percentage of compounds found active in the miR-21 FLuc assay would be FLuc inhibitors, the library was screened for activity against FLuc using a biochemical assay of purified FLuc and KM concentrations of FLuc substrates (D-luciferin and ATP).
NCGC Assay Protocol Summary: Reagents: 50mM Tris acetate, pH 7.5; 10mM Mg acetate; 10uM D-luciferin (Sigma #L9504); 10uM ATP; 0.01% Tween-20; 0.05% BSA; 10nM P. pyralis luciferase (Sigma #L9506) Control compounds used were two known firefly luciferase inhibitors (compounds (2) and (5) in Auld et al., 2010), and DMSO. […]
With `Cc1nc2c(C(=O)NCCc3ccccc3)c[nH]n2c(=O)c1Cc1ccc(F)cc1Cl` the Potency was inconclusive: 30.1 µM [inhibitor, partial curve].
With `COc1ccc(-c2cc(C(=O)N3CCOCC3)no2)cc1` the Potency was active: 1.51 µM.
With `Cc1cccc(N2CCN(C(=O)c3ccc(NC(=O)c4nsc5ccccc45)cc3)CC2)c1C` the Potency was active: 6.01 µM.
With `O=S(=O)(/N=C(\Sc1ccc(Cl)cc1)c1ccccc1)c1ccccc1` the Potency was inconclusive: 26.9 µM [inhibitor, partial curve, poor fit].
`O=C(C1CCC(CNc2nc(=S)[nH]c3ccccc23)CC1)N1CCN(c2ccc(F)cc2)CC1` (stereo unspecified) was tested, and the “activity change, negative = inhibition” value was inactive: -0.109%.
With `CCCOc1ccc(-c2nc(N3CCN(CC)CC3)c3ccccc3n2)cc1` the Potency was inconclusive: 23.9 µM [inhibitor, single point].
With `Cc1cc(OCC(=O)N2CCCC2)ccc1Cl` the Potency was inconclusive: 19 µM [inhibitor, single point].
`COc1cc(C=O)ccc1OCCCOc1ccccc1C(=O)O` was tested, and the Potency was active: 1.9 µM.
In the case of `CC(CC(=O)N1CCc2ccccc21)n1cccn1` (stereo unspecified), the Potency is reported as inconclusive: 37.9 µM [inhibitor, partial curve, poor fit].
In the case of `Cc1cc(Br)ccc1NC(=O)CN(C)C(=O)c1ccc2ccccc2n1`, the Potency is reported as inconclusive: 19 µM [inhibitor, partial curve].
In the case of `c1ccc(Nc2c(-c3ccco3)nc3ccccn23)cc1`, the Potency is reported as inconclusive: 21.3 µM [inhibitor, partial curve, poor fit].
In the case of `Cn1ccnc1SCC(=O)Nc1nc2ccccc2s1`, the Potency is reported as inconclusive: 26.9 µM [inhibitor, partial curve].
For `N#Cc1ccc(OCC(=O)Nc2cc(S(=O)(=O)N3CCOCC3)ccc2N2CCOCC2)cc1`, the Potency was inconclusive: 26.9 µM [inhibitor, single point].
In the case of `O=C(c1ccccc1)N1CCN(c2ccc(N3CCOCC3)nn2)CC1`, the “activity change, negative = inhibition” value is reported as inactive: 4.14%.
In the case of `O=C(O)c1cc(-c2ccco2)nc2ccccc12`, the Potency is reported as active: 21.3 µM.
`Cc1ccc(-n2c(C)cc(/C=C3/C(=N)N4C(c5ccccc5)=CSC4=NC3=O)c2C)cc1` was tested, and the Potency was inconclusive: 13.5 µM [inhibitor, partial curve].
With `Cc1c(C(=O)NC2CCCC2)oc2ccccc12` the Potency was inconclusive: 23.9 µM [inhibitor, single point].
In the case of `CCOc1cc(C(=O)NC(=S)Nc2cccnc2)cc(OCC)c1OCC`, the Potency is reported as inconclusive: 26.9 µM [inhibitor, single point].
`O=C(Cn1cc(S(=O)(=O)Cc2ccccc2F)c2ccccc21)NCc1ccccc1Cl` was tested, and the Potency was inconclusive: 30.1 µM [inhibitor, single point].
In the case of `COC(=O)CNC(=O)COC(=O)/C=C/c1ccc2ccccc2n1`, the Potency is reported as inconclusive: 21.3 µM [inhibitor, partial curve, poor fit].
In the case of `COc1ccc2[nH]c3c(=O)n(CCCC(=O)NC4CCCCC4C)c(=S)[nH]c3c2c1` (stereo unspecified), the “activity change, negative = inhibition” value is reported as inactive: 1.87%.
`COC(=O)c1sc2nc(C)c([N+](=O)[O-])c(C)c2c1N` was tested, and the Potency was inconclusive: 15.1 µM [inhibitor, partial curve, poor fit].
For `Cc1ccc(Nc2sc(C(=O)c3ccccc3)c(N)c2S(=O)(=O)c2ccccc2)c(C)c1`, the “activity change, negative = inhibition” value was inactive: -0.236%.
For `O=C(O)/C(=C1/OC(=O)c2ccccc21)c1ccccc1`, the “activity change, negative = inhibition” value was inactive: -1.18%.
`Cc1ccc(-c2nc(NCCCO)c3ccccc3n2)cc1` was tested, and the Potency was inconclusive: 26.9 µM [inhibitor, single point].
In the case of `CCOc1ccc(CNC(=O)C2CCCN(S(=O)(=O)N(CC)c3ccc(OCC)cc3)C2)cc1` (stereo unspecified), the “activity change, negative = inhibition” value is reported as inactive: -14.8%.
With `COc1ccc(/C=C/C(=O)Nc2ccc(S(=O)(=O)N3CCOCC3)cc2)c(OC)c1` the Potency was inconclusive: 37.9 µM [inhibitor, partial curve, poor fit].
With `O=C(Nc1ccc(N2CCOCC2)cc1)c1c(F)cccc1Cl` the “activity change, negative = inhibition” value was inactive: -2.01%.
`COc1ccc(-c2nnn(Cc3ccccc3)n2)cc1OC` was tested, and the Potency was inconclusive: 23.9 µM [inhibitor, partial curve, poor fit].
In the case of `CNC(=O)c1ccc(-c2ccc(OC)cc2)s1`, the Potency is reported as active: 6.75 µM.
`CC(NC(=O)C1=Cc2ccccc2OC1)c1ccccc1` (stereo unspecified) was tested, and the “activity change, negative = inhibition” value was inactive: -2.97%.
With `COc1cc(/C=N/N2C(=O)C3C4C=CC(CC4)C3C2=O)ccc1O` (stereo unspecified) the Potency was inconclusive: 33.8 µM [inhibitor, single point].
With `COc1cc(/C=N/NC(=O)c2ccc(-n3cccc3)cc2)ccc1O` the Potency was active: 21.3 µM.
In the case of `CN(Cc1ccccc1F)C(=O)CNC(=O)Cc1cccc2ccccc12`, the Potency is reported as inconclusive: 23.9 µM [inhibitor, partial curve].
For `CC(C)Nc1nnc(SC(C)C(=O)N(C)C2CCCCC2)s1` (stereo unspecified), the “activity change, negative = inhibition” value was inactive: 2.48%.
In the case of `CC(=O)c1ccc(NC(=O)N2CCCC(C(=O)c3ccc4c(c3)OCO4)C2)cc1` (stereo unspecified), the Potency is reported as inconclusive: 23.9 µM [inhibitor, partial curve, poor fit].
For `O=C(COc1ccc(F)c(Cl)c1)c1ccc[nH]1`, the Potency was inconclusive: 19 µM [inhibitor, single point].
With `CCc1ccccc1-n1c2c(cc(-c3nc(-c4ccc(Cl)cc4)cs3)c1=O)C(=O)CC(C)(C)C2` the “activity change, negative = inhibition” value was inactive: -7.76%.
For `COc1ccc(OC)c(S(=O)(=O)ON2C(=O)c3ccccc3C2=O)c1`, the Potency was inconclusive: 30.1 µM [inhibitor, partial curve, poor fit].
`Cc1ccc2nc(-c3ccncc3)cc(C(=O)N3CCOCC3)c2c1` was tested, and the “activity change, negative = inhibition” value was inactive: -1.56%.
`COc1ccc(C)cc1NC(=O)CSc1nnc(CC(=O)Nc2ccccc2C)n1C` was tested, and the “activity change, negative = inhibition” value was inactive: 6.43%.
In the case of `Cc1cccc(NC(=O)c2ccc(S(=O)(=O)N(C)C)cc2)c1`, the Potency is reported as inconclusive: 26.9 µM [inhibitor, single point].
`Cc1cc(C)cc(NC(=O)c2ncn(-c3ccccc3)n2)c1` was tested, and the Potency was inconclusive: 6.75 µM [inhibitor, partial curve].
With `CCc1ccc(NC(=O)N(Cc2cn(CC)c3ccccc23)C2CCCCC2)cc1` the Potency was inconclusive: 6.75 µM [inhibitor, partial curve, poor fit].
`C[C@@]12CCC[C@@](C)(C(=O)O)C1CC[C@@]13C[C@@H](NCc4ccccc4)[C@@](C)(CCC12)C3` (stereo partly specified) was tested, and the “activity change, negative = inhibition” value was inactive: 5.22%.
In the case of `O=C1C2C3C=CC(C3)C2C(=O)N1c1ccc2ccccc2c1` (stereo unspecified), the Potency is reported as inconclusive: 23.9 µM [inhibitor, partial curve].
`O=[N+]([O-])c1ccc2c(c1)nc1n2CCN(c2ccccc2)C1` was tested, and the Potency was inconclusive: 15.1 µM [inhibitor, partial curve].
With `CC(C)c1ccc(NC(=O)C(NS(=O)(=O)c2ccc3c(c2)CCC(=O)N3)c2ccccc2)cc1` (stereo unspecified) the Potency was inconclusive: 15.1 µM [inhibitor, partial curve, poor fit].
`Cc1ccc2[nH]cc(C(=O)CN3CCN(c4ccccn4)CC3)c2c1` was tested, and the Potency was inconclusive: 21.3 µM [inhibitor, partial curve, poor fit].
In the case of `CCOCN(C(=O)Cn1c(CC(C)C)nc2ccccc21)c1c(C)cccc1CC`, the “activity change, negative = inhibition” value is reported as inactive: 5.51%.
`Cn1c(=O)cc(OCC(=O)N2CCN(c3ccc(F)cc3)CC2)c2ccccc21` was tested, and the “activity change, negative = inhibition” value was inactive: 4.97%.
In the case of `CCOC(=O)c1c(C)oc2c1c(C(c1ccccc1)N1CCOCC1)c(O)c1ccccc12` (stereo unspecified), the Potency is reported as inconclusive: 23.9 µM [inhibitor, single point].
`CCOC(=O)/C(C#N)=C1/C=C(C)NC(c2ccccc2O)=N1` was tested, and the Potency was inconclusive: 37.9 µM [inhibitor, single point].
For `Cn1ccnc1SCC(=O)Nc1ccc(Oc2ccccc2)cc1`, the Potency was active: 13.5 µM.
For `N#CCCN(C(=O)COC(=O)CNS(=O)(=O)c1ccc2ccccc2c1)c1ccccc1`, the “activity change, negative = inhibition” value was inactive: 8.64%.
With `COc1cc(OC)cc(-c2cc3nc(C)c(CCC(=O)Nc4ccc(F)c(Cl)c4)c(C)n3n2)c1` the Potency was inconclusive: 30.1 µM [inhibitor, partial curve, poor fit].
For `O=C(Cc1ccccc1)N1CCC(c2ccccc2)C1` (stereo unspecified), the Potency was inconclusive: 26.9 µM [inhibitor, partial curve, poor fit].
For `COCCN=c1scc(-c2ccccc2)n1/N=C/c1c[nH]c2ccccc12`, the Potency was inconclusive: 26.9 µM [inhibitor, single point].
In the case of `CC(Sc1nnc(NCc2ccccc2)s1)C(=O)Nc1ccc2c(c1)C(=O)c1ccccc1C2=O` (stereo unspecified), the Potency is reported as inconclusive: 9.53 µM [inhibitor, partial curve, poor fit].
For `O=CC1=C(c2ccccc2)Oc2ccccc2O1`, the Potency was inconclusive: 19 µM [inhibitor, single point].
`Fc1ccc(N=c2ssnc2Cl)c(F)c1` was tested, and the Potency was active: 19 µM.
In the case of `Cc1cccc(C(=O)Nc2sc(C)c(-c3ccccc3)c2C#N)c1`, the Potency is reported as active: 4.26 µM.
In the case of `COc1ccc(NC(=O)NC2CCCCCCC2)cc1`, the Potency is reported as active: 6.01 µM.
In the case of `CCc1ccccc1NC(=O)c1cnc2scc(C)n2c1=O`, the Potency is reported as inconclusive: 23.9 µM [inhibitor, single point].
`COc1ccccc1C1=Nc2cccc3cccc(c23)N1` was tested, and the Potency was active: 16.9 µM.
In the case of `COCc1nc(-c2ccc(-c3ccccc3)nc2OC)no1`, the Potency is reported as inconclusive: 30.1 µM [inhibitor, partial curve].
With `N/C(=N\OC(=O)c1ccc(Cl)c(Cl)c1)c1cccnc1` the Potency was active: 8.49 µM.
With `O=C(Nc1ccc(NC(=O)c2ccccc2Cl)nc1)c1ccco1` the Potency was inconclusive: 26.9 µM [inhibitor, partial curve].
`Cc1cc(NC(=O)c2ccco2)ccc1NC(=O)Cc1cccs1` was tested, and the Potency was active: 15.1 µM.
For `Cc1nc2ccc(NC(=O)Cc3ccc4c(c3)OCCO4)cc2s1`, the Potency was inconclusive: 23.9 µM [inhibitor, partial curve].
In the case of `O=[N+]([O-])c1cc(-c2cnc3ccccc3n2)ccc1Oc1ccc(Cl)cc1`, the Potency is reported as inconclusive: 16.9 µM [inhibitor, single point].
